From PubChem BioAssay AID485344 (National Center for Advancing Translational Sciences (NCATS), 2010)
The campaign covered roughly 340,000 compounds. About 6,900 (2%) were called active. Rule as the data show it: active = inhibition above about 30%; inactive = below that, where a call was filed. Only a part is listed here, and it is no random draw. The source gives no active or inactive call for entries shown without one.

target: D(2) dopamine receptor (Homo sapiens) (UniProt P14416); test: HTS Assay for Allosteric Antagonists of the Human D2 Dopamine Receptor: Primary Screen for Antagonists; settings: HEK293 TREx D2 cells, calcium flux, dopamine EC80; at 10 µM; stronger effect = higher value; also: 0% is about no effect
Chain of UniProt P14416 (P14416 whole entry, looked up): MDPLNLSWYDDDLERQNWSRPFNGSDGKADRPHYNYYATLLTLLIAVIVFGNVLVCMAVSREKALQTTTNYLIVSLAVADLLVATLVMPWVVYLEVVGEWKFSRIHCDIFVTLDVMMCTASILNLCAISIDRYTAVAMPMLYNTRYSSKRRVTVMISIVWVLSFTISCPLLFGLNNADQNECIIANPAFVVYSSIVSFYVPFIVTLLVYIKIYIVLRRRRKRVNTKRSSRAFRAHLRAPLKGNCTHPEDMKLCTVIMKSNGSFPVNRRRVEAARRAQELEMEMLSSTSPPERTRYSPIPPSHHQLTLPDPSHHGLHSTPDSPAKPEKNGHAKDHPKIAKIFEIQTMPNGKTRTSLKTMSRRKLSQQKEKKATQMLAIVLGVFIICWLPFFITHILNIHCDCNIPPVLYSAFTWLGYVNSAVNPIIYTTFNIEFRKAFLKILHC
Procedure, shortened: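 Calcium flux kinetic readout in an inducible HEK293 TREx D2 line plated overnight at 30 C. After 180 s compound exposure, an EC80 dopamine challenge follows with another 180 s kinetic read to detect antagonism.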

| Structure (SMILES) | inhibition |
| --- | --- |
| Cc1ccc(Cl)cc1N1CCN(c2ncnc3c2nc2n3CCCC2)CC1 | -4.31% |
| CCOc1ccc(C2C(C(=O)Nc3ccccc3)=C(C)Nc3nc(-c4ccccc4Cl)nn32)cc1OC (stereo not given) | -1.82% |
| COc1ccc(CNC(=O)Cn2c(=O)oc3cc(S(=O)(=O)NCc4ccccc4)ccc32)cc1 | 20.9% |
| CCOc1ccc(-c2cc(NC(=O)c3ccccc3)c(C(=O)OC)s2)cc1 | -8.72% |
| O=c1[nH]c(C2CCN(S(=O)(=O)c3ccccc3)CC2)nc2c1nnn2Cc1cccc(Cl)c1 | active: 31.7% |
| COc1ccccc1CCNC(=O)c1cccn1-c1nnc(N2CCCC2)s1 | 5.55% |
| Cc1cc(C)c(NC(=O)Cn2c(=O)oc3cc(S(=O)(=O)N4CCCCCC4)ccc32)c(C)c1 | 16% |
| Cc1ccc(Cc2nc3ccccc3nc2SCC(=O)N2CCC(C)CC2)cc1 | -10.3% |
| Cc1ccc(NC(=O)Cn2c(=O)n(-c3ccc(C)cc3)c(=O)c3c2cnn3C)cc1 | 2.36% |
| Cc1ccc(-n2nc(C)c3c(C)c(CCC(=O)NC(C)c4ccccc4)c(C)nc32)cc1 (stereo not given) | -10% |
| Fc1ccc(CN2CCc3nc(N4CCN(c5ccccc5F)CC4)ncc3C2)c(F)c1 | 7.7% |
| CCOc1ccc(NC(=O)c2c(C)oc3nc(C)nc(N4CCCC4)c23)cc1 | -3.76% |
| COc1cccc(C(=O)Nc2ccc3nc(SCC(=O)N(C)c4ccccc4)sc3c2)c1 | -16.1% |
| Cc1ccc(CNC(=O)c2ccc(CSc3nc4ccncc4n3Cc3ccc(C)cc3)cc2)cc1 | 11.6% |
| COc1ccc(CCNC(=O)CCc2cn(Cc3ccccc3Cl)c3ccccc23)c(OC)c1 | 11.9% |
| O=C(NCCc1ccc(Cl)cc1)C1CCN(Cc2cc3ccccc3n2Cc2ccccc2)CC1 | -1.55% |
| CCC1Sc2ccccc2N(CC(=O)NCc2ccc(C)cc2)C1=O (stereo not given) | -3.04% |
| O=S(=O)(c1ccc(Cl)cc1)c1nnn2c1nc(NC1CCCC1)c1sccc12 | -4.34% |
| COc1ccc(N2CCN(C(CNS(=O)(=O)c3ccc(OC)c(C)c3)c3ccco3)CC2)cc1 (stereo not given) | -6.69% |
| Cc1cccn2c(=O)c3cc(C(=O)NCC(C)C)sc3nc12 | -22% |
| Cc1noc2ncnc(N3CCN(c4cccc(C(F)(F)F)c4)CC3)c12 | -4.14% |
| COc1ccc(C)cc1-n1c(-c2ccc(Cl)cc2)cc2c1CC(C)(C)CC2=O | -9.62% |
| O=C(CCN1CCCCC1)Nc1cccc(Cl)c1 | active: 56.8% |
| Nc1c(C(=O)Nc2ccccc2Br)sc2nc(-c3cccs3)ccc12 | -2.38% |

| Structure (SMILES) | inhibition |
| --- | --- |
| O=C(CSc1nc2c([nH]c3ccccc32)c(=O)n1-c1ccccc1)Nc1ccc2c(c1)OCO2 | 3.86% |
| Cc1cc(NC(=O)N2CCC(CN3CCCCCC3)CC2)ccc1Br | 0.921% |
| COc1cccc(NC(=O)c2c(C)nn(-c3cccc(C)c3)c2-n2cccc2)c1 | 6.58% |
| O=C(Cn1ccc2cc(S(=O)(=O)N3CCCCCC3)ccc21)NCc1ccccc1Cl | 2.41% |
| COC(=O)c1ccc2c(=O)n(CCCCCC(=O)NCCc3ccccc3)c(=O)[nH]c2c1 | -2.54% |
| CCc1ccc(OCC2c3cc(OC)c(OC)cc3CCN2C(=O)c2ccc(S(=O)(=O)N3CCCC3)cc2)cc1 (stereo not given) | 20.8% |
| CCn1cc(C(=O)NCCCOC(C)C)c(=O)c2cc(S(=O)(=O)N3CCOCC3)ccc21 | -8.67% |
| O=C(CN1CCC(NC(=O)c2ccco2)CC1)Nc1ccccc1C(F)(F)F | active: 49.8% |
| CCOC(=O)c1cnc2c(ccc3ccccc32)c1Nc1ccc(N(C)C)cc1 | -11.3% |
| CC(C)N(Cc1ccccc1)C(=O)c1nc(-c2ccc(Cl)cc2)n2c1CCCCC2 | 3.71% |
| CCN1C(=O)c2ccccc2S(=O)(=O)c2ccc(C(=O)NCc3ccccc3)cc21 | -17.7% |
| CCOC(=O)C1CCN(C(=O)c2ccccc2NC(=O)c2nsc3ccccc23)CC1 | -4.36% |
| CCOc1ccc(NS(=O)(=O)c2c(C)nc3sc(C)c(C)n3c2=O)cc1 | 15.6% |
| COCCCNC(=O)c1cn(Cc2c(F)cccc2Cl)nn1 | active: 32% |
| Clc1ccc(OCc2nnc(-c3ccccc3Br)o2)cc1 | active: 36.4% |
| Cc1nc2nc(NC(=O)c3ccc(C(C)(C)C)cc3)[nH]n2c(=O)c1C | 2.26% |
| CCCCOc1ccc(C(=O)Nc2ccc3c(c2)CCCN3C(=O)c2cccs2)cc1 | 5.04% |
| O=C(CCC1N=C2c3ccccc3N=C(SCC(=O)Nc3cccc(Cl)c3)N2C1=O)NCc1ccco1 (stereo not given) | 14.2% |
| CNCc1c(OCc2ccccc2)ccc2ccccc12 | active: 79.2% |
| NC(=O)C1CCN(S(=O)(=O)c2cc3c(cc2Cl)NC(=O)CO3)CC1 | 10.9% |
| CCCCN(CC)C(=O)CSc1nc2n[nH]c(C)c2c(=N)n1-c1ccc(CC)cc1 | 7.32% |
| CCOC(=O)C1CCN(C(=O)c2cc3sc(C)cc3n2C)CC1 | 2.27% |
| CCOc1ccc(-c2cccc(NS(=O)(=O)c3ccc(C)s3)c2)nn1 | -3.58% |
| COc1ccc(NC(=O)CSc2ncc3c(n2)-c2ccccc2N(Cc2ccc(C)cc2)S3(=O)=O)cc1Cl | 1.16% |

| Structure (SMILES) | inhibition |
| --- | --- |
| Cc1ccc(N(C)C(=O)c2sc3nc4n(c(=O)c3c2C)CCCC4)cc1C | 24.9% |
| COCCCn1c(=O)c2sccc2n2c(CCCC(=O)NCc3cccc(OC)c3)nnc12 | -5.69% |
| O=C(NCc1ccccc1CN1CCCC1)c1ccc(Cl)c(S(=O)(=O)N2CCCC2)c1 | active: 32.9% |
| COc1ccccc1CCNC(=O)Cc1c(C)c2cc(Cl)c(O)cc2oc1=O | -2.7% |
| CCN(CC(O)CON=C1c2ccccc2-c2ccccc21)S(=O)(=O)c1ccc(C)cc1 (stereo not given) | active: 34.1% |
| CC(C)c1ccc(S(=O)(=O)N2CCN(Cc3cccc(F)c3)CC2)cc1 | 19.3% |
| CCCCOc1ccccc1C1CC(=O)Nc2ccc3ccccc3c21 (stereo not given) | 12% |
| CCOc1ccc(CNC(=O)c2oc3c(c2C)-c2nn(Cc4cccc(Cl)c4)cc2CC3)cc1 | 10.7% |
| COc1cc(OC)cc(C(=O)NC(=S)N2CCCCC2c2cccnc2)c1 (stereo not given) | active: 40.7% |
| COc1ccc(C)c2sc(NC(=O)c3ccc(S(=O)(=O)N(C)C)cc3)nc12 | 0.445% |
| COC(=O)c1ccccc1NC(=O)[C@H]1O[C@@H]2OC(C)(C)O[C@@H]2[C@H]2OC(C)(C)O[C@H]21 | -2.03% |
| Cc1cc(C)cc(OCC(=O)Nc2cccc3cccnc23)c1 | -0.269% |
| CCCCCCC(=O)Nc1ccc2nc3c(=O)n(C)c(=O)n(C)c3nc2c1C | -20.1% |
| CC(=O)Nc1cccc(-c2nc(-c3ccccc3)no2)c1 | 5.37% |
| CCOC(=O)c1ccc(N2C(=O)c3n[nH]c(-c4ccco4)c3C2c2ccc(C(=O)OC)cc2)cc1 (stereo not given) | 22.6% |
| O=C(c1ccc2c(c1)N(Cc1ccc(Cl)cc1)C(=O)c1ccccc1S2(=O)=O)N1CCCC1 | 0.714% |
| O=c1c2sc3ccccc3c2n(Cc2cccc(F)c2)c(=O)n1CCc1ccccc1 | -3.84% |
| CCN(CC)C(=O)Cn1c(=O)n(CCCCCC(=O)NCc2ccc3c(c2)OCO3)c(=O)c2sccc21 | -18.1% |
| Cc1ccccc1C(=O)Nc1ccnn1C1CCN(Cc2ccncc2)CC1 | active: 30.7% |
| Cc1ccc(CNC(=O)c2ccc(N3CCCC3)c(NC(=O)Nc3ccc(C)cc3)c2)cc1 | 7.41% |
| Cc1ccc(CNC(=O)C(=O)Nc2c3c(nn2-c2ccc(F)cc2)CSC3)cc1 | 20.5% |
| Cc1ccc(NC(=O)CN2C(=O)COc3ccc(S(=O)(=O)N4CCCCCC4)cc32)c(C)c1 | -4.11% |
| CCC(=O)OCc1cc(=O)n2nc(C3CC3)sc2n1 | 14.2% |
| Cc1ccc2nc(CSc3nnc(-c4ccncc4)n3C)cc(=O)n2c1 | active: 71.2% |

| Structure (SMILES) | inhibition |
| --- | --- |
| CCCc1cc(=O)oc2c3c(ccc12)OCN(Cc1ccccc1OC)C3 | 7.4% |
| CN(C(=O)Cn1nc(Cc2cccnc2)c2ccccc2c1=O)c1cccc(C(F)(F)F)c1 | 11.9% |
| COc1ccc(Oc2cc(C)c3ccccc3n2)cc1 | active: 44.6% |
| CCCCC1CCC(C(=O)N2CC(=O)Nc3ccc(Br)cc3C2c2ccc(F)cc2)CC1 (stereo not given) | 5.27% |
| CN1C(=O)c2ccc(NC(=O)c3c(C(=O)O)cccc3[N+](=O)[O-])cc2C1=O | active: 33.9% |
| CCc1ccc(S(=O)(=O)c2nnn3c2nc(N2CCN(c4ccccc4)CC2)c2cc(Cl)ccc23)cc1 | 11.6% |
| CCc1c(C)c2ccc(O)c(CN3CCN(c4cc(Cl)ccc4C)CC3)c2oc1=O | 14% |
| O=C(O)CC1c2ccccc2CCN1C(=O)Nc1cc(Cl)ccc1Cl (stereo not given) | -0.177% |
| Cc1ccc(N(CC(=O)N2CCN(c3cc(C)ccc3C)CC2)S(=O)(=O)c2c(C)nn(C)c2C)cc1 | 7.27% |
| Cc1ccc(CN(C(=O)c2ccc(OCC(C)C)cc2)c2ccccn2)o1 | -3.88% |
| CCc1cccc(CC)c1NC(=O)CCCSc1nc2ccccc2s1 | active: 30.3% |
| COc1ccc(-c2cc(C)no2)cc1S(=O)(=O)NCCCN1CCN(c2ccccc2)CC1 | active: 80.1% |
| CCc1ccc(-c2nc(CS(=O)CC(=O)NCCc3ccc(C)cc3)c(C)o2)cc1 (stereo not given) | -1.62% |
| CC(C)c1cnc2c(c1SCC(=O)NC(C)(C)C)c(=O)n(C)c(=O)n2C | 4.61% |
| CCN(CC)CCOC(=O)c1ccc(NC(=O)c2cc3c(s2)-c2ccccc2OC3)cc1 | 7.3% |
| CCc1ccc(NC(=O)CN2C(=O)c3ccccc3Sc3ccc(C(=O)N4CCCC4)cc32)cc1 | 14.8% |
| Clc1cccc(C2=NC(c3cccs3)=Nc3ccc(Br)cc3N2)c1 | 0.104% |
| COc1ccc(C(CNC(=O)C(C)(C)Oc2ccc(Cl)cc2)N2CCCC2)cc1 (stereo not given) | active: 97.3% |
| COc1ccc(CNC(=O)c2sc3nc4n(c(=O)c3c2C)CCCCC4)cc1 | 16.7% |
| Cc1nc(-c2ccc(S(=O)(=O)Nc3ccc(Cl)c(C(F)(F)F)c3)cc2)co1 | 11.2% |
| COc1ccc(CNC(=O)C(CC(C)C)N2Cc3ccccc3C2=O)cc1 (stereo not given) | -13.6% |
| CCN(CC)CCOC(=O)c1ccc(Nc2c3c(nc4ccccc24)CCC3)cc1 | 8.45% |
| Cc1ccc2nc(COc3cccc(NC(=O)c4ccccc4Cl)c3)cc(=O)n2c1 | -22.8% |
